These results are taken from the supplement of paper PMC11741623.

The other results are listed elsewhere or left out. Interaction screen of human proteins with wild-type SARS-CoV-2 proteins by split-DHFR complementation in yeast, 1 µg/mL methotrexate. Value = fitness of the pair (three or more lineages) minus that of the viral protein without a human partner, on a scale set by negative (0) and fused positive (1) controls, mean of up to three cultures; higher = more likely to interact. Active = false discovery rate below 0.05 (one-sided t-test) in at least one culture. Nearly all pairs are not hits, and differences among them are mostly noise (correlation between cultures about 0.3); most hits were seen in one culture only. Human sequences are the Swiss-Prot entries looked up by gene name; the clone may be another isoform. NSP2 values were corrected by the authors for a growth advantage. Listed are human proteins with a hit and a random twelfth of the others.

Sequences and labels used below:
B1: TEFM, Q96QE5 (protein)
chain: MSGSVLFTAGERWRCFLTPSRSSLYWALHNFCCRKKSTTPKKITPNVTFCDENAKEPENALDKLFSSEQQASILHVLNTASTKELEAFRLLRGRRSINIVEHRENFGPFQNLESLMNVPLFKYKSTVQVCNSILCPKTGREKRKSPENRFLRKLLKPDIERERLKAVNSIISIVFGTRRIAWAHLDRKLTVLDWQQSDRWSLMRGIYSSSVYLEEISSIISKMPKADFYVLEKTGLSIQNSSLFPILLHFHIMEAMLYALLNKTFAQDGQHQVLSMNRNAVGKHFELMIGDSRTSGKELVKQFLFDSILKADPRVFFPSDKIVHYRQMFLSTELQRVEELYDSLLQAIAFYELAVFDSQP
B2: TADA2A, O75478 (protein)
chain: MDRLGPFSNDPSDKPPCRGCSSYLMEPYIKCAECGPPPFFLCLQCFTRGFEYKKHQSDHTYEIMTSDFPVLDPSWTAQEEMALLEAVMDCGFGNWQDVANQMCTKTKEECEKHYMKHFINNPLFASTLLNLKQAEEAKTADTAIPFHSTDDPPRPTFDSLLSRDMAGYMPARADFIEEFDNYAEWDLRDIDFVEDDSDILHALKMAVVDIYHSRLKERQRRKKIIRDHGLINLRKFQLMERRYPKEVQDLYETMRRFARIVGPVEHDKFIESHALEFELRREIKRLQEYRTAGITNFCSARTYDHLKKTREEERLKRTMLSEVLQYIQDSSACQQWLRRQADIDSGLSPSIPMASNSGRRSAPPLNLTGLPGTEKLNEKEKELCQMVRLVPGAYLEYKSALLNECNKQGGLRLAQARALIKIDVNKTRKIYDFLIREGYITKG
B3: PANK3, Q9H999 (protein)
chain: MKIKDAKKPSFPWFGMDIGGTLVKLSYFEPIDITAEEEQEEVESLKSIRKYLTSNVAYGSTGIRDVHLELKDLTLFGRRGNLHFIRFPTQDLPTFIQMGRDKNFSTLQTVLCATGGGAYKFEKDFRTIGNLHLHKLDELDCLVKGLLYIDSVSFNGQAECYYFANASEPERCQKMPFNLDDPYPLLVVNIGSGVSILAVHSKDNYKRVTGTSLGGGTFLGLCSLLTGCESFEEALEMASKGDSTQADKLVRDIYGGDYERFGLPGWAVASSFGNMIYKEKRESVSKEDLARATLVTITNNIGSVARMCAVNEKINRVVFVGNFLRVNTLSMKLLAYALDYWSKGQLKALFLEHEGYFGAVGALLGLPNFS
B4: SIGLEC5, O15389 (protein)
chain: MLPLLLLPLLWGGSLQEKPVYELQVQKSVTVQEGLCVLVPCSFSYPWRSWYSSPPLYVYWFRDGEIPYYAEVVATNNPDRRVKPETQGRFRLLGDVQKKNCSLSIGDARMEDTGSYFFRVERGRDVKYSYQQNKLNLEVTALIEKPDIHFLEPLESGRPTRLSCSLPGSCEAGPPLTFSWTGNALSPLDPETTRSSELTLTPRPEDHGTNLTCQMKRQGAQVTTERTVQLNVSYAPQTITIFRNGIALEILQNTSYLPVLEGQALRLLCDAPSNPPAHLSWFQGSPALNATPISNTGILELRRVRSAEEGGFTCRAQHPLGFLQIFLNLSVYSLPQLLGPSCSWEAEGLHCRCSFRARPAPSLCWRLEEKPLEGNSSQGSFKVNSSSAGPWANSSLILHGGLSSDLKVSCKAWNIYGSQSGSVLLLQGRSNLGTGVVPAALGGAGVMALLCICLCLIFFLIVKARRKQAAGRPEKMDDEDPIMGTITSGSRKKPWPDSPGDQASPPGDAPPLEEQKELHYASLSFSEMKSREPKDQEAPSTTEYSEIKTSK
B5: S100A8, P05109 (protein)
chain: MLTELEKALNSIIDVYHKYSLIKGNFHAVYRDDLKKLLETECPQYIRKKGADVWFKELDINTDGAVNFQEFLILVIKMGVAAHKKSHEESHKE
B6: HSD17B14, Q9BPX1 (protein)
chain: MATGTRYAGKVVVVTGGGRGIGAGIVRAFVNSGARVVICDKDESGGRALEQELPGAVFILCDVTQEDDVKTLVSETIRRFGRLDCVVNNAGHHPPPQRPEETSAQGFRQLLELNLLGTYTLTKLALPYLRKSQGNVINISSLVGAIGQAQAVPYVATKGAVTAMTKALALDESPYGVRVNCISPGNIWTPLWEELAALMPDPRATIREGMLAQPLGRMGQPAEVGAAAVFLASEANFCTGIELLVTGGAELGYGCKASRSTPVDAPDIPS

The first assay deals with SARS-CoV-2 NSP10. Briefly: yeast fitness gain over the viral ORF with no human partner (scaled fitness); higher = more likely to interact. Here is the method: (§1)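 Split mouse DHFR complementation in pooled diploid yeast: human ORFeome clones carry one fragment and viral ORFs the other; barcoded lineages compete in 1 µg/mL methotrexate and fitness is read by barcode sequencing in up to three cultures.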
With B1, the yeast fitness gain is inactive: -0.171.

On to B2, for which the yeast fitness gain was inactive: -0.297.

In the case of B3, the yeast fitness gain was inactive: -0.138.

As for B4, the yeast fitness gain is inactive: -0.257.

Turning to B5, the yeast fitness gain was inactive: -0.0674.

As to B6, the yeast fitness gain was inactive: -0.128.

The next assay deals with SARS-CoV-2 NSP12. The assay is described as above. Here is the method:
as §1
As for B1, the yeast fitness gain is inactive: -0.103.

On to B2, for which the yeast fitness gain is inactive: -0.00571.

As for B3, the yeast fitness gain was inactive: 0.00513.

Consider B4, for which the yeast fitness gain is inactive: -0.105.

For B5, the yeast fitness gain was inactive: 0.091.

The target of the next assay is SARS-CoV-2 NSP13. The assay is described as above. Here is the method: as §1
For the molecule B1, the yeast fitness gain is inactive: -0.102.

Consider B2, for which the yeast fitness gain was inactive: -0.201.

As to B3, the yeast fitness gain was inactive: -0.0118.

With B4, the yeast fitness gain is inactive: 0.0666.

For B5, the yeast fitness gain was inactive: -0.0173.

For the molecule B6, the yeast fitness gain is inactive: 0.0831.

Another assay addresses SARS-CoV-2 NSP15. Described as above. Here is the method:
as §1
As to B1, the yeast fitness gain is inactive: 0.0226.

Consider B3, for which the yeast fitness gain was inactive: 0.0342.

Another assay has as its target SARS-CoV-2 NSP16. The description is as above. Here is the method: as §1
As for B1, the yeast fitness gain was inactive: -0.0345.

For the molecule B5, the yeast fitness gain is inactive: 0.0149.

The next assay deals with SARS-CoV-2 NSP2. The description is as above. Here is the method:
as §1
As to B1, the yeast fitness gain was inactive: -0.391.

B2: the yeast fitness gain is inactive: -0.0508.

Regarding B3, the yeast fitness gain is inactive: -0.103.

With B5, the yeast fitness gain was inactive: -0.112.

The target in another assay is SARS-CoV-2 NSP5. Described as above. Here is the method: as §1
Consider B1, for which the yeast fitness gain is inactive: 0.0172.

In the case of B5, the yeast fitness gain was inactive: -0.12.

Another assay concerns the target SARS-CoV-2 NSP6. The assay is described as above. Here is the method: as §1
On to B1, for which the yeast fitness gain was inactive: -0.174.

As for B5, the yeast fitness gain was inactive: 0.083.

The target in another assay is SARS-CoV-2 NSP7. Described as above. Here is the method: as §1
Turning to B1, the yeast fitness gain is inactive: -0.0449.

In the case of B4, the yeast fitness gain is inactive: -0.16.

Turning to B5, the yeast fitness gain is inactive: 0.0519.

A further assay addresses SARS-CoV-2 ORF3B. The assay is described as above. Here is the method: as §1
As to B1, the yeast fitness gain was inactive: -0.0593.

Turning to B2, the yeast fitness gain is inactive: -0.0705.

In the case of B3, the yeast fitness gain is inactive: 0.0212.

With B5, the yeast fitness gain was inactive: -0.0627.

The target in a further assay is SARS-CoV-2 ORF6. The assay is described as above. Here is the method: as §1
Turning to B1, the yeast fitness gain is inactive: -0.0735.

On to B3, for which the yeast fitness gain is inactive: 0.0146.

On to B4, for which the yeast fitness gain is inactive: 0.0268.

For the molecule B5, the yeast fitness gain was inactive: 0.0281.

Another assay deals with SARS-CoV-2 ORF7A. The description is as above. Here is the method: as §1
B1: the yeast fitness gain was inactive: -0.0175.

As to B3, the yeast fitness gain is inactive: 0.052.

A further assay concerns the target SARS-CoV-2 ORF7B. The description is as above. Here is the method: as §1
B1: the yeast fitness gain is inactive: -0.0274.

B3: the yeast fitness gain was inactive: 0.00443.

Consider B5, for which the yeast fitness gain is inactive: -0.0182.

In the next assay the target is SARS-CoV-2 ORF8. The assay is described as above. Here is the method: as §1
Regarding B1, the yeast fitness gain was inactive: -0.128.

Consider B3, for which the yeast fitness gain was inactive: -0.121.

B5: the yeast fitness gain was inactive: 0.0829.

On to B6, for which the yeast fitness gain is inactive: -0.0981.

A further assay concerns the target SARS-CoV-2 ORF9B. The assay is described as above. Here is the method:
as §1
As to B1, the yeast fitness gain was inactive: 0.0179.

With B2, the yeast fitness gain is inactive: -0.0111.

On to B3, for which the yeast fitness gain was inactive: -0.0487.

Regarding B4, the yeast fitness gain is inactive: -0.0446.

Regarding B5, the yeast fitness gain is inactive: -0.0874.

In the case of B6, the yeast fitness gain is inactive: 0.0197.

Another assay addresses SARS-CoV-2 S. The description is as above. Here is the method:
as §1
Consider B1, for which the yeast fitness gain is inactive: -0.088.

On to B3, for which the yeast fitness gain was inactive: 0.0881.

Take B5: the yeast fitness gain is inactive: -0.0973.

In the next assay the target is SARS-CoV-2 ORF10. Described as above. Here is the method:
as §1
For B3, the yeast fitness gain was inactive: 0.0588.

In the case of B4, the yeast fitness gain was inactive: 0.0618.

Consider B6, for which the yeast fitness gain was inactive: -0.0519.

A further assay has as its target SARS-CoV-2 NSP8. The assay is described as above. Here is the method: as §1
B4: the yeast fitness gain is inactive: -0.0719.

As for B5, the yeast fitness gain is inactive: 0.0239.

Consider B6, for which the yeast fitness gain was inactive: -0.00829.

The next assay deals with SARS-CoV-2 ORF9Bwu (the 73-codon ORF). Described as above. Here is the method:
as §1
In the case of B5, the yeast fitness gain was inactive: -0.0462.
